Experimental data as given in PubChem BioAssay AID1768 (National Center for Advancing Translational Sciences (NCATS), 2009).
In all, about 270,000 compounds went through this assay and about 620 (0.23%) were called active. The shares of active, inactive and inconclusive entries below differ from those in the screen. The call rests on the fitted dose curve; in most records, active means well fitted inhibition curve with a large enough effect in the polarisation, with a control signal flat (not every such curve was filed as active); inconclusive means small, poorly fitted or top-dose-only effect, or effect the other way, or a change in a side signal; inactive means no such curve, though single readings can be large or run the other way; the % refers to the polarisation. Where the call is inconclusive, the potency comes from a doubtful curve fit. A note “side channel” means that the fit belongs to a control or component signal, not to the main read-out.

Molecular target: Menin (Homo sapiens) (UniProt O00255)
Assay: qHTS Assay for Inhibitors Targeting the Menin-MLL Interaction in MLL Related Leukemias: Competition With Texas Red Labeled MLL-derived Mutant Peptide; on FP activity change, negative = inhibition: % of control where 0% means no effect
Settings: fluorescence polarization; FP activity change, negative = inhibition: at 61.6 µM (top of the series)
Potency means the concentration at half of the fitted maximal effect; tags describe the fitted curve by direction and shape or compound fluorescence and quenching.

Sequence of UniProt O00255 (O00255 whole entry, looked up): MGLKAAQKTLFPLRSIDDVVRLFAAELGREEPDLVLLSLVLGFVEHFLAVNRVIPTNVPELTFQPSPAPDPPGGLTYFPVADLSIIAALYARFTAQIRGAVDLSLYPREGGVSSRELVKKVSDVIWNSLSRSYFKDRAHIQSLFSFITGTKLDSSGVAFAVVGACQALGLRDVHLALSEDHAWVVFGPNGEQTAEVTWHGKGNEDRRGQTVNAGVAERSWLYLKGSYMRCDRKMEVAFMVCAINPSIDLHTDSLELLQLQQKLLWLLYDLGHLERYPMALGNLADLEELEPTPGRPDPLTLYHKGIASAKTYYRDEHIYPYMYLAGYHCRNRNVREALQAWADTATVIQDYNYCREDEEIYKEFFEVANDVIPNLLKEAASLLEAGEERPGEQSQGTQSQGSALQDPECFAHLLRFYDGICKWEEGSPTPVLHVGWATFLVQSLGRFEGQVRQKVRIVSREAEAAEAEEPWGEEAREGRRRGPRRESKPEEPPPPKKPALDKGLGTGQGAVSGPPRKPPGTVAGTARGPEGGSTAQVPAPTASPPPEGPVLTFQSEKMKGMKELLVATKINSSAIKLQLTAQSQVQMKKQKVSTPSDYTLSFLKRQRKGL

Potency, inconclusive:
CCCCC(CC)CN=C(N)NC(N)=NCCCCCCN=C(N)NC(N)=NCC(CC)CCCC (stereo not given) 14.1 µM [inhibitor, partial curve]
O=C(/C=C/c1cccs1)Nc1ccc([N+](=O)[O-])cc1 25.1 µM [quencher, side channel, partial curve]
COc1ccc(/C=C/C(=O)NCC(=O)N/N=C/c2cc(Br)ccc2OCc2ccccc2)cc1 11.2 µM [inhibitor, partial curve]
Cc1ccc(/C=N\NC(=O)C2COc3cc4ccccc4cc3O2)o1 (stereo not given) 1.12 µM [inhibitor, full curve, poor fit]
COc1cc(N/N=C(\C)c2ccc(O)c(C)c2)nc(-c2ccccc2)n1 7.08 µM [quencher, side channel, partial curve]
Cc1cccc(Nc2nnc(SCC(=O)Nc3cccc(S(=O)(=O)N4CCCCC4)c3)s2)c1 35.5 µM [inhibitor, single point]
Cc1ccccc1NCC(=O)N/N=C/C(Br)=C/c1ccccc1 8.91 µM [quencher, side channel, partial curve]
COc1cccc(-c2nc3ccccc3s2)c1O 39.8 µM [inhibitor, single point]
CCN1CCN(C(=O)c2cn(CCOC)c(=O)c3c2c2ccccc2n3C)CC1 31.6 µM [inhibitor, single point]
NC(=O)c1nsc(C(=O)N(c2ccccc2)C(C(=O)NCc2ccc(F)cc2)c2ccc(O)cc2)c1N (stereo not given) 10 µM [quencher, side channel, partial curve]
COCCN1C(=O)/C(=C/c2ccc(N3CCCC3)cc2C)SC1=S 3.16 µM [fluorescent, side channel, full curve]
Cc1cc([N+](=O)[O-])nn1CCCC(=O)Nc1cc(Oc2ccccc2)cc([N+](=O)[O-])c1 17.8 µM [quencher, side channel, single point]
CCc1ccc2[nH]c3nc(N/N=C/c4cccc(O)c4)nnc3c2c1 14.1 µM [quencher, side channel, partial curve]
CCCCOc1ccc(Cl)cc1CSc1n[nH]c(C)n1 3.16 µM [inhibitor, single point]
CCCCCCCCCCCCCCC[C@@H](O)[C@H](CO)NC(=O)CCCCCCC 35.5 µM [inhibitor, single point]
C#CCOc1nc(Nc2cccc([N+](=O)[O-])c2)nc(OCC#C)n1 22.4 µM [quencher, side channel, single point]
CC(=O)c1ccc(N2CCN(C(=O)C3CCC3)CC2)cc1 39.8 µM [inhibitor, single point]
COc1ccccc1N1C(=O)S/C(=C\c2cccs2)C1=O 31.6 µM [inhibitor, single point]
Cc1ccc(/C=N/NC(=O)NC2CCCCC2)o1 44.7 µM [inhibitor, partial curve]
O=C(CNC(=O)c1ccc(-c2ccccc2)cc1)OCc1ccc(Br)cc1 2 µM [inhibitor, partial curve]
COC(=O)c1ccc2[nH]c(CO)c(-c3ccccc3)c2c1 31.6 µM [quencher, side channel, single point]
C=CCOC(=O)C1=C[C@@H](C2CCCCC2)C[C@@H](OCc2ccc(CO)cc2)O1 10 µM [fluorescent, side channel, partial curve]
Cc1ccc(OC(=O)c2sc3ncn(C)c(=O)c3c2C)cc1 31.6 µM [inhibitor, partial curve]
COC(=O)CCC(=O)OC1(C)C(=O)C=C2C=C(C3CC3)N(c3cccc(C#N)c3)C=C2C1=O (stereo not given) 8.91 µM [inhibitor, single point]
CC(C)C(C(=O)O)N1C(=O)/C(=C/C=C/c2ccco2)SC1=S (stereo not given) 28.2 µM [fluorescent, side channel, partial curve]
Oc1ccccc1Nc1nc(-c2ccccc2O)nc2ccccc12 28.2 µM [quencher, side channel, partial curve]
CC(=O)N/C(=C\c1ccccc1)C(=O)OCc1cc(C)ccc1C 28.2 µM [fluorescent, side channel, single point]
O=c1c(-c2ccco2)[n+]([O-])c2ccccc2n1OCc1ccccc1[N+](=O)[O-] 22.4 µM [quencher, side channel, single point]
COc1ccc(C(=O)NCCc2c[nH]c3ccccc23)cc1OC 0.708 µM [inhibitor, partial curve, poor fit]
Cc1cc(C)n(Cc2ccc(C(=O)N/N=C/c3ccc(-c4ccc([N+](=O)[O-])cc4)o3)o2)n1 25.1 µM [quencher, single point]
COc1ccc(-c2cn[nH]c2-c2ccc(OC)cc2O)cc1 20 µM [quencher, side channel, partial curve]
CCOc1ccc(NC(=O)CC2C(=O)N(c3ccc(OC)cc3)C(=S)N2Cc2ccccn2)cc1 (stereo not given) 15.8 µM [quencher, side channel, partial curve]
NC(=S)N=Nc1ccc(NN=C(N)N)cc1 31.6 µM [quencher, side channel, partial curve]
Cc1cc(OCC(=O)N2CCN(c3ccc(F)cc3)CC2)c2c(C)cc(=O)oc2c1 44.7 µM [fluorescent, side channel, partial curve]
COCCOc1ccc(C(F)(F)F)cc1NC(=O)COC(=O)c1cc([N+](=O)[O-])ccc1N1CCOCC1 8.91 µM [quencher, side channel, partial curve]
O=C(NCCc1ccc(Cl)cc1)c1ccc2c(c1)OCCO2 28.2 µM [fluorescent, side channel, single point]
Nc1nonc1-n1nnc(C(=O)N/N=C/c2ccc(Cl)cc2Cl)c1CN1CCOCC1 22.4 µM [fluorescent, side channel, single point]
Cc1ccc(/C(O)=C2\C(=O)C(=O)N(c3cc(C)on3)C2c2cccc(Cl)c2)cc1 (stereo not given) 31.6 µM [quencher, side channel, single point]
CCN(C(=O)C(C)N1C(=O)/C(=C/c2ccco2)SC1=S)C1CCS(=O)(=O)C1 (stereo not given) 15.8 µM [fluorescent, side channel, partial curve]
CCn1nc([N+](=O)[O-])c(C(C#N)c2nc3ccccc3n2C)c(Cl)c1=O (stereo not given) 39.8 µM [quencher, side channel, single point]
Cc1cc(N)n2ncc(-c3ccc(F)cc3)c2n1 39.8 µM [quencher, side channel, single point]
Cn1ccnc1SCC(=O)c1cc2ccccc2o1 39.8 µM [quencher, side channel, single point]
CCc1cc2c(=O)c(-c3nc4ccccc4n3C)c(COCC(=O)O)oc2cc1O 14.1 µM [quencher, side channel, partial curve]
O=c1[nH]n(-c2cccc(Cl)c2)c2ncccc12 17.8 µM [quencher, side channel, partial curve]
CCOc1cccc(=O)c2c(C)n(CC(=O)c3ccccc3)c(C)c12 22.4 µM [quencher, side channel, single point]
Nc1cc(-c2ccc(Br)cc2)nn1S(=O)(=O)c1cccc2nsnc12 12.6 µM [quencher, side channel, partial curve]
CCCCn1c(-c2cccs2)nc2nc3ccccc3nc21 39.8 µM [quencher, side channel, single point]
O=C(COc1cccc(OC(F)F)c1)Nc1ccc(SC(F)F)cc1 35.5 µM [quencher, side channel, single point]

FP activity change, negative = inhibition, inactive:
FC(F)(F)c1ccc(-c2noc(CN3CCCN(C4CCCCC4)CC3)n2)cc1 -8.06%
Cc1ccccc1C(=O)NNC(=O)C(=O)Nc1cccc(Cl)c1C -7.42%
COC(=O)c1ccc(OC(=O)c2ccco2)cc1 5.29%
CCN1CCN(CCn2c(=S)[nH]c3cc4c(cc3c2=O)OCO4)CC1 7.03%
Cc1ccc(S(=O)(=O)NC2CCCCCCC2)cc1 -9.61%
O=C1/C(=C/c2ccco2)CCc2ccccc21 -7.91%
CCOC(=O)C1(CCc2ccccc2)CCN(Cc2cnc(N(C)C)s2)CC1 -15.4%
Nc1nc(Nc2ccccc2)nc(N2CCOCC2)c1[N+](=O)[O-] 13.6%
CC(C)(CCCCCCCCCCC(C)(C)CC(=O)O)CC(=O)O -19.8%
CCNc1ncc2nc(-c3ccc(F)cc3)c(=O)n(C[C@H]3CCCO3)c2n1 7.32%
COc1ccc(C2=NS(=O)(=O)N(C)C(C(=O)NC(C)c3ccccc3)=C2)cc1OC (stereo not given) 6.52%
COc1ccc(C(=O)Nc2ccc(N3CCN(c4ccc(OC)cc4)CC3)c(C#N)c2)cc1 -10.4%
